Values marked as one replicate rest on one cluster of the flow cell; about a third of the high ones do not repeat.
What follows are sequences tested on ATP (assay: switch fluorescence ratio, 500 uM ATP over buffer (Cy3 cluster intensity, sum of 5 cycles each) (fold (ratio)); higher = stronger signal-on switching upon ATP binding; sequences stand for … in TCGTCGGCAGCGTCAGATGTGTATAAGAGACAGTTTTTTTTTTTTTTTTTTTTTTTTT…TC). Conditions: aptamer strand: ATP DNA aptamer (quencher-CACCTGGGGGAGTATTGCGGAGGAAGG + anchor), 100 nM annealed; ATP concentration: 500 uM; one replicate.
In short: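 Between each of five buffer/ATP cycles, the flow-cell was stripped with NaOH and re-annealed. Each cycle imaged Cy3-labelled switching-strand clusters, annealed to 100 nM quencher-labelled ATP aptamer on a modified Illumina MiSeq flow-cell, first in selection buffer and then after 15 min with 500 uM ATP at 22 °C. The fluorescence ratio is summed target-cycle over summed buffer-cycle Cy3 intensity per cluster, averaged per switch-domain sequence, with clusters outside 100-1000 RFU excluded.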
For GGTGCGCTGT, the switch fluorescence ratio was 1.04.
GGTGCGGCAC showed a switch fluorescence ratio of 0.988.
Work on GGTGCGGTGA yielded a switch fluorescence ratio of 1.
For GGTGCGTGGA, the switch fluorescence ratio was 0.967.
In the case of GGTGCTACTC, the switch fluorescence ratio is reported as 1.24.
In the case of GGTGCTCTAT, the switch fluorescence ratio is reported as 1.02.
Work on GGTGGACCGG yielded a switch fluorescence ratio of 1.04.
With GGTGGACTCC the switch fluorescence ratio was 1.01.
GGTGGAGCAC gave a switch fluorescence ratio of 0.934.
With GGTGGCACAC the switch fluorescence ratio was 1.05.
Sequence GGTGGCGCCT has a switch fluorescence ratio of 1.
Sequence GGTGGGCACC has a switch fluorescence ratio of 0.997.
Sequence GGTGGGTCTG has a switch fluorescence ratio of 1.03.
Work on GGTGGTAATG yielded a switch fluorescence ratio of 0.93.
In the case of GGTGGTCTGG, the switch fluorescence ratio is reported as 0.944.
Sequence GGTGGTGCCG has a switch fluorescence ratio of 0.919.
GGTGTAGTAG showed a switch fluorescence ratio of 1.03.
In the case of GGTGTAGTCC, the switch fluorescence ratio is reported as 0.957.
GGTGTCTCTT showed a switch fluorescence ratio of 0.973.
GGTGTCTGTC gave a switch fluorescence ratio of 0.949.
In the case of GGTGTGATAA, the switch fluorescence ratio is reported as 0.992.
GGTGTGCTTC showed a switch fluorescence ratio of 1.01.
With GGTGTGGACA the switch fluorescence ratio was 0.996.
GGTGTGGACC showed a switch fluorescence ratio of 0.976.
GGTGTGGGTC showed a switch fluorescence ratio of 0.993.
GGTGTGTTGG gave a switch fluorescence ratio of 1.01.
Work on GGTGTTAATA yielded a switch fluorescence ratio of 1.02.
GGTGTTAG was tested, and the switch fluorescence ratio was 0.958.
Sequence GGTGTTAGTT has a switch fluorescence ratio of 0.965.
For GGTGTTCCTG, the switch fluorescence ratio was 1.
With GGTGTTCTAT the switch fluorescence ratio was 0.996.
Work on GGTTAAGTAA yielded a switch fluorescence ratio of 0.986.
GGTTACCCTC gave a switch fluorescence ratio of 1.05.
GGTTACGCA gave a switch fluorescence ratio of 1.07.
In the case of GGTTAGTAGT, the switch fluorescence ratio is reported as 0.978.
Work on GGTTCCAATT yielded a switch fluorescence ratio of 1.48.
In the case of GGTTCCTTGG, the switch fluorescence ratio is reported as 1.02.
In the case of GGTTCTAGGT, the switch fluorescence ratio is reported as 1.01.
For GGTTCTCTGC, the switch fluorescence ratio was 1.02.
GGTTGACGAT gave a switch fluorescence ratio of 1.01.
In the case of GGTTGATGTG, the switch fluorescence ratio is reported as 0.989.
For GGTTGATTCT, the switch fluorescence ratio was 0.981.
In the case of GGTTGGCCTG, the switch fluorescence ratio is reported as 1.05.
GGTTGTAATA was tested, and the switch fluorescence ratio was 0.975.
In the case of GGTTGTATAC, the switch fluorescence ratio is reported as 1.03.
GGTTGTCATA gave a switch fluorescence ratio of 1.02.
GGTTGTCTCA showed a switch fluorescence ratio of 1.04.
For GGTTTAACTG, the switch fluorescence ratio was 1.01.
GGTTTACTGA showed a switch fluorescence ratio of 0.995.
GGTTTAGTGT showed a switch fluorescence ratio of 0.96.
GGTTTCAAGA was tested, and the switch fluorescence ratio was 1.02.
With GGTTTCATTT the switch fluorescence ratio was 0.996.
For GGTTTCCCCG, the switch fluorescence ratio was 1.03.
GGTTTCCGAG gave a switch fluorescence ratio of 1.08.
Sequence GGTTTGAGCG has a switch fluorescence ratio of 0.983.
Sequence GGTTTGCAAA has a switch fluorescence ratio of 0.962.
GGTTTGCTAT gave a switch fluorescence ratio of 0.973.
For GGTTTGTGAG, the switch fluorescence ratio was 0.968.
GGTTTGTTCG was tested, and the switch fluorescence ratio was 1.02.
In the case of GGTTTTAGAC, the switch fluorescence ratio is reported as 1.02.
Work on GGTTTTAGTA yielded a switch fluorescence ratio of 1.04.
Sequence GGTTTTATAG has a switch fluorescence ratio of 0.999.
For GGTTTTTCAG, the switch fluorescence ratio was 0.942.
Work on GTAAAAAGAA yielded a switch fluorescence ratio of 0.97.
GTAAACTTTT showed a switch fluorescence ratio of 1.44.
GTAAATTTTG gave a switch fluorescence ratio of 0.998.
GTAACATAGG showed a switch fluorescence ratio of 0.983.
For GTAACATCCA, the switch fluorescence ratio was 1.03.
GTAACCAGCC showed a switch fluorescence ratio of 1.73.
GTAACCCACA gave a switch fluorescence ratio of 1.36.
For GTAACCCTGC, the switch fluorescence ratio was 1.06.
For GTAACCGACG, the switch fluorescence ratio was 1.27.
GTAAGAGTCT was tested, and the switch fluorescence ratio was 0.989.
Work on GTAAGCTCTC yielded a switch fluorescence ratio of 1.06.
GTAAGGGGTA showed a switch fluorescence ratio of 0.976.
Sequence GTAATAAGG has a switch fluorescence ratio of 0.967.
With GTAATCGTTA the switch fluorescence ratio was 1.02.
GTAATGACGT gave a switch fluorescence ratio of 1.04.
In the case of GTAATGAGAA, the switch fluorescence ratio is reported as 1.01.
GTAATGAGCT showed a switch fluorescence ratio of 0.986.
GTAATGAGTG was tested, and the switch fluorescence ratio was 0.966.
With GTAATGGAGC the switch fluorescence ratio was 0.956.
GTAATTCCGA showed a switch fluorescence ratio of 1.
In the case of GTAATTGTAG, the switch fluorescence ratio is reported as 1.
GTAATTTGAC showed a switch fluorescence ratio of 0.978.

From the supplement of paper PMC10126150
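Also: ATP exposure 15 min at 22 °C before imaging.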
